The results in this text go back to ChEMBL document CHEMBL4888484, “Replenishing the malaria drug discovery pipeline: Screening and hit evaluation of the MMV Hit Generation Library 1 (HGL1) against asexual blood stage Plasmodium falciparum ,using a nano luciferase reporter read-out” (2022).

Out of some 150,000 compounds screened, about 540 (0.36%) showed an effect of 50% or more. Some of the results follow.

In this test the test system is Plasmodium falciparum. The experiment in a line: Primary screen in NF54 nanoGlo assay, in single point, at 2uM, 72h; a lower Z score goes with more inhibition. Format: functional, Erythrocyte. The note with it: timepoint 72 hour.
The % Inhibition is the drop in the measured response relative to a control, in per cent. `COC(=O)C1CCN(Cc2c(C(=O)N3C[C@@H](C)O[C@@H](C)C3)nc3ccc(Cl)cn23)CC1`: the “% Inhibition” value is reported as 9% and the Z score is listed as -1.26.

For the molecule `N#Cc1cc(F)ccc1NCCCc1nc(=O)[nH][nH]1`, the “% Inhibition” value is recorded as -7% and the Z score came to 1.

On to `CCc1cc(C(=O)N2C[C@H]3CC[C@@H](C2)N(Cc2c(C)noc2C)C3=O)no1`, for which the “% Inhibition” value is listed as -17% and the Z score was 2.35.

As to `CCOc1cccc(-n2nc(C)[nH]c2=O)n1`, the “% Inhibition” value is -18% and the Z score was 2.12.

Take `CCC(CC)NC(=O)c1cc(Cl)ccc1Cl`: the “% Inhibition” value is recorded as -17% and the Z score is listed as 3.23.

As to `COc1ccccc1OCC(=O)Nc1nccnc1C(F)(F)F`, the “% Inhibition” value is given as -17% and the Z score was found to be 2.

Take `CCOCC(=O)N1CCC[C@](C)(c2nc(C3CC3)no2)C1`: the “% Inhibition” value is given as -6% and the Z score is on record as 0.73.

For the molecule `Cc1ncsc1C(=O)N1CCCN(C[C@H](O)c2ccccc2)CC1`, the “% Inhibition” value is recorded as -10% and the Z score was 0.92.

For `O=C(NCc1ccccc1)N1CCC(F)(C(=O)N2CCOCC2)CC1`, the “% Inhibition” value is -12% and the Z score amounted to 1.54.

Consider `CCCCCc1nnc(NC(=O)Cc2cc(C)no2)s1`, for which the “% Inhibition” value is -10% and the Z score is recorded as 1.86.

Regarding `C[C@]1(CN2C(=O)c3ccccc3C2=O)Nc2ccccc2C(=O)N1c1ccccc1`, the “% Inhibition” value is reported as 1% and the Z score is recorded as -0.22.

For the molecule `Cc1ccc(-n2nc(C(=O)NCCN3CCOCC3)c(=O)n(Cc3ccccc3Cl)c2=O)cc1Cl`, the “% Inhibition” value is -13% and the Z score was 1.65.

With `O=C(NCCCN1CCCC1=O)[C@H]1CCCN(c2ncnc3c2nc2n3CCCCC2)C1`, the “% Inhibition” value was -13% and the Z score is recorded as 2.08.

Regarding `COC[C@H]1CCCN1C(=O)c1c(C)n[nH]c1C1CC1`, the “% Inhibition” value is given as -16% and the Z score stood at 2.12.

On to `COc1ccc(C2=NC3(CCCCC3)N(C(=O)c3ccccc3)C2=O)cc1`, for which the “% Inhibition” value is listed as -10% and the Z score is listed as 1.

Turning to `COc1cccc(-c2cc3c(c(OC)c2)OCCN(S(=O)(=O)c2ccccc2C(F)(F)F)C3)n1`, the “% Inhibition” value came out at 6% and the Z score is -0.8.

For `N#Cc1ccc(C(=O)N[C@@H](Cc2ccccc2)C(N)=O)[nH]1`, the “% Inhibition” value is -11% and the Z score is 1.42.

With `COC(=O)C1C2CCC(C2)C1NC(=O)Cc1csc(C(C)C)n1` (stereo unspecified), the “% Inhibition” value was -10% and the Z score came to 0.95.

For the molecule `O=C(Nc1ccc(F)cc1)OC1CCCC(NC(=O)c2ccc(Br)o2)C1` (stereo unspecified), the “% Inhibition” value is on record as -5% and the Z score amounted to 0.93.

In the case of `COCc1cc(CNCC(=O)NC2CCCCCCC2)n[nH]1`, the “% Inhibition” value is given as -9% and the Z score stood at 1.48.

For the molecule `CN1C(=O)CCC(C(=O)NCC(=O)O)C1c1ccc(C(F)(F)F)cc1` (stereo unspecified), the “% Inhibition” value is -17% and the Z score turned out to be 2.17.

For the molecule `Cc1ccc(CNC(=O)Cn2cc(-c3noc(-c4ccncc4)n3)nc2C)cc1C`, the “% Inhibition” value is listed as -2% and the Z score is on record as 0.24.

Regarding `CCn1nc(-c2csc(C)n2)nc1-c1ccc2[nH]c(C)nc2c1`, the “% Inhibition” value was -6% and the Z score is reported as 0.76.
